Data taken from a collection of fitness landscapes (doi:10.1126/science.1257360).
The list shows a part of the results.

B1: PhoQ; a variant is named by its letters at X, in order, P23837 (parent)
chain: MKKLLRLFFPLSLRVRFLLATAAVVLVLSLAYGMVALIGYSVSFDKTTFRLLRGESNLFYTLAKWENNKLHVELPENIDKQSPTMTLIYDENGQLLWAQRDVPWLMKMIQPDWLKSNGFHEIEADVNDTSLLLSGDHSIQQQLQEVREDDDDAEMTHSVAVNVYPATSRMPKLTIVVVDTIPVELKSSYMVWSWFIYVLSANLLLVIPLLWVAAWWSLRPIEALAKEVRELEEHNRELLNPATTRELTSLVRNLNRLLKSERERYDKYRTTLTDLTHSLKTPLXXLQXXLRSLRSEKMSVSDAEPVMLEQISRISQQIGYYLHRASMRGGTLLSRELHPVAPLLDNLTSALNKVYQRKGVNISLDISPEISFVGEQNDFVEVMGNVLDNACKYCLEFVEISARQTDEHLYIVVEDDGPGIPLSKREVIFDRGQRVDTLRPGQGVGLAVAREITEQYEGKIVAGESMLGGARMEVIFGRQHSAPKDE

Variants of: B1
Assay: enrichment ratio after two sorts for PhoP signalling (ratio (wild type AVST 3.29)); higher = more functional
Settings: with PhoP (E. coli)

FPTP and PMWR cannot be ordered by enrichment ratio: at most 0.25 for the first, at most 0.25 for the second.

Going from QYVD to TAFS, the enrichment ratio rises from at most 0.25 to 1.14.

IFWE and HHYP cannot be ordered by enrichment ratio: at most 0.25 for the first, at most 0.25 for the second.

LPTY and MPII cannot be ordered by enrichment ratio: at most 0.25 for the first, at most 0.25 for the second.

Compared with QGGC, KRYM is lower in enrichment ratio: 19.5 for the first, at most 0.25 for the second.

PNCR and FWSM cannot be ordered by enrichment ratio: at most 0.25 for the first, at most 0.25 for the second.

TLME and NIFP cannot be ordered by enrichment ratio: at most 0.25 for the first, at most 0.25 for the second.

GDGC and HDMV cannot be ordered by enrichment ratio: at most 0.25 for the first, at most 0.25 for the second.

ESII and ELVP cannot be ordered by enrichment ratio: at most 0.25 for the first, at most 0.25 for the second.

NTGP and YANH cannot be ordered by enrichment ratio: at most 0.25 for the first, at most 0.25 for the second.

NKFQ and ASSP cannot be ordered by enrichment ratio: at most 0.25 for the first, at most 0.25 for the second.

AYPW and VCPD cannot be ordered by enrichment ratio: at most 0.25 for the first, at most 0.25 for the second.

IKSQ and YMSS cannot be ordered by enrichment ratio: at most 0.25 for the first, at most 0.25 for the second.

Compared with NKIL, GYII is higher in enrichment ratio: at most 0.25 for the first, 0.285 for the second.

EMHN and SDHD cannot be ordered by enrichment ratio: at most 0.25 for the first, at most 0.25 for the second.

First: GDMY
Second: AMMH
The enrichment ratio of the first is lower: at most 0.25 for the first, 0.296 for the second.

Compared with WSAF, QMAI is lower in enrichment ratio: 0.647 for the first, at most 0.25 for the second.

VTIY and HKCY cannot be ordered by enrichment ratio: at most 0.25 for the first, at most 0.25 for the second.

VDQY and HTKQ cannot be ordered by enrichment ratio: at most 0.25 for the first, at most 0.25 for the second.

AEFD and VWMC cannot be ordered by enrichment ratio: at most 0.25 for the first, at most 0.25 for the second.

THIF and ENGV cannot be ordered by enrichment ratio: at most 0.25 for the first, at most 0.25 for the second.

KNAV and IRQW cannot be ordered by enrichment ratio: at most 0.25 for the first, at most 0.25 for the second.

DNCQ and WTDY cannot be ordered by enrichment ratio: at most 0.25 for the first, at most 0.25 for the second.

Going from TIAL to DGQP, the enrichment ratio falls from 12.9 to at most 0.25.

AGQF and QRSN cannot be ordered by enrichment ratio: at most 0.25 for the first, at most 0.25 for the second.

First: VEYW
Second: TTGF
The enrichment ratio of the first is lower: at most 0.25 for the first, 17.1 for the second.

FTDV and MFES cannot be ordered by enrichment ratio: at most 0.25 for the first, at most 0.25 for the second.

ICPK and GPDV cannot be ordered by enrichment ratio: at most 0.25 for the first, at most 0.25 for the second.

TMKW and KEVI cannot be ordered by enrichment ratio: at most 0.25 for the first, at most 0.25 for the second.

IPGT and PVPR cannot be ordered by enrichment ratio: at most 0.25 for the first, at most 0.25 for the second.

First: MTEA
Second: LEMM
The enrichment ratio of the first is lower: at most 0.25 for the first, 11.3 for the second.

HMVH and PDCF cannot be ordered by enrichment ratio: at most 0.25 for the first, at most 0.25 for the second.

GAPY and HHRW cannot be ordered by enrichment ratio: at most 0.25 for the first, at most 0.25 for the second.

First: MELS
Second: SMNW
The enrichment ratio of the first is higher: 9.24 for the first, at most 0.25 for the second.

HDGQ and NPFE cannot be ordered by enrichment ratio: at most 0.25 for the first, at most 0.25 for the second.

KHFH and LMDI cannot be ordered by enrichment ratio: at most 0.25 for the first, at most 0.25 for the second.

EQHL and RGEA cannot be ordered by enrichment ratio: at most 0.25 for the first, at most 0.25 for the second.

VSWE and NIFS cannot be ordered by enrichment ratio: at most 0.25 for the first, at most 0.25 for the second.

FAGP and IHMD cannot be ordered by enrichment ratio: at most 0.25 for the first, at most 0.25 for the second.

MHER and APIF cannot be ordered by enrichment ratio: at most 0.25 for the first, at most 0.25 for the second.

QLMV and DVAQ cannot be ordered by enrichment ratio: at most 0.25 for the first, at most 0.25 for the second.

MAPS and EDHT cannot be ordered by enrichment ratio: at most 0.25 for the first, at most 0.25 for the second.

KDDE and HHSC cannot be ordered by enrichment ratio: at most 0.25 for the first, at most 0.25 for the second.

FEWP and PKTE cannot be ordered by enrichment ratio: at most 0.25 for the first, at most 0.25 for the second.

DCGM and DHSI cannot be ordered by enrichment ratio: at most 0.25 for the first, at most 0.25 for the second.

First: SCTY
Second: HRAE
The enrichment ratio of the first is higher: 15.6 for the first, at most 0.25 for the second.

YATM and GTRV cannot be ordered by enrichment ratio: at most 0.25 for the first, at most 0.25 for the second.

VGKT and TGSD cannot be ordered by enrichment ratio: at most 0.25 for the first, at most 0.25 for the second.

DRED and VDYY cannot be ordered by enrichment ratio: at most 0.25 for the first, at most 0.25 for the second.

NQMK and GFIA cannot be ordered by enrichment ratio: at most 0.25 for the first, at most 0.25 for the second.

Compared with TKNY, KEQW is lower in enrichment ratio: 5.32 for the first, at most 0.25 for the second.

IHWH and KEQV cannot be ordered by enrichment ratio: at most 0.25 for the first, at most 0.25 for the second.

VVNF and IDKD cannot be ordered by enrichment ratio: at most 0.25 for the first, at most 0.25 for the second.

NCAK and PELQ cannot be ordered by enrichment ratio: at most 0.25 for the first, at most 0.25 for the second.

IRCH and RKHF cannot be ordered by enrichment ratio: at most 0.25 for the first, at most 0.25 for the second.

PPYK and ITHN cannot be ordered by enrichment ratio: at most 0.25 for the first, at most 0.25 for the second.

FSPH and KLHC cannot be ordered by enrichment ratio: at most 0.25 for the first, at most 0.25 for the second.

TPES and IIAE cannot be ordered by enrichment ratio: at most 0.25 for the first, at most 0.25 for the second.

SGQF and QDNH cannot be ordered by enrichment ratio: at most 0.25 for the first, at most 0.25 for the second.

SRNI and IYNM cannot be ordered by enrichment ratio: at most 0.25 for the first, at most 0.25 for the second.

KINR and YQDL cannot be ordered by enrichment ratio: at most 0.25 for the first, at most 0.25 for the second.

First: FGMM
Second: NHFV
The enrichment ratio of the first is higher: 18.1 for the first, at most 0.25 for the second.

Going from PWPH to TASP, the enrichment ratio rises from at most 0.25 to 0.655.

TVMP and EHFR cannot be ordered by enrichment ratio: at most 0.25 for the first, at most 0.25 for the second.

GCYW and QMMP cannot be ordered by enrichment ratio: at most 0.25 for the first, at most 0.25 for the second.

HTGE and LWQK cannot be ordered by enrichment ratio: at most 0.25 for the first, at most 0.25 for the second.

HQER and NRLM cannot be ordered by enrichment ratio: at most 0.25 for the first, at most 0.25 for the second.

IPDW and MAVR cannot be ordered by enrichment ratio: at most 0.25 for the first, at most 0.25 for the second.

FAYH and LAKG cannot be ordered by enrichment ratio: at most 0.25 for the first, at most 0.25 for the second.

KYQR and FIVV cannot be ordered by enrichment ratio: at most 0.25 for the first, at most 0.25 for the second.

FNVR and VCQC cannot be ordered by enrichment ratio: at most 0.25 for the first, at most 0.25 for the second.

Going from VACL to HCSH, the enrichment ratio falls from 3.6 to at most 0.25.

NSDR and LHFI cannot be ordered by enrichment ratio: at most 0.25 for the first, at most 0.25 for the second.

DIGA and PAWN cannot be ordered by enrichment ratio: at most 0.25 for the first, at most 0.25 for the second.

WMYD and ALGC cannot be ordered by enrichment ratio: at most 0.25 for the first, at most 0.25 for the second.

ILHP and IMKT cannot be ordered by enrichment ratio: at most 0.25 for the first, at most 0.25 for the second.

Work on WAIG yielded an enrichment ratio of at most 0.25.
